Measured values published in article PMC9726891, “SESAME-catalyzed H3T11 phosphorylation inhibits Dot1-catalyzed H3K79me3 to regulate autophagy and telomere silencing” (Nature Communications, 2022).

Biological target: T1, purified endogenous SIR complex (Sir2-FLAG) (S. cerevisiae (endogenous in yeast), UniProt P06700; P06701; P11978 1-1358)
T1 construct: NAD-dependent histone deacetylase Sir2, S. cerevisiae; Sir3, S. cerevisiae; named as a subunit of the SIR complex in the introduction; Sir4, S. cerevisiae; also called silent information regulator complex; not shown: FLAG, C-terminal, kept; copies: + +
T1 sequence (P06700 whole entry, chain 1 of 3): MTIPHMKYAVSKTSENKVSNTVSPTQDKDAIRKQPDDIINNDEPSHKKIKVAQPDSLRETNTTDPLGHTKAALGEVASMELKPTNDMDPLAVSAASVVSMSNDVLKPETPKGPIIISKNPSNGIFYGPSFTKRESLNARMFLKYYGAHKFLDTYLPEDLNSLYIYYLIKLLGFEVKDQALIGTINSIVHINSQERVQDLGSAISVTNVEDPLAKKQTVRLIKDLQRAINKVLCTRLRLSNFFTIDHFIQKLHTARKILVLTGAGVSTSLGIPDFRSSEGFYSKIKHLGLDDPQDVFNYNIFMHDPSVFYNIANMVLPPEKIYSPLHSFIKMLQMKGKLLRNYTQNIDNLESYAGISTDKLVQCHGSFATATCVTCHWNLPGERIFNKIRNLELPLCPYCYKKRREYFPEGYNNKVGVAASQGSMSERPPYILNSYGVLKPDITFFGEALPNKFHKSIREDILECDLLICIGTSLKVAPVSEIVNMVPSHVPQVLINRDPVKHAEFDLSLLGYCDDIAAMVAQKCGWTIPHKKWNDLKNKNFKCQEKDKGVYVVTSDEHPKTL
T1 sequence (P06701 whole entry, chain 2 of 3, further chain): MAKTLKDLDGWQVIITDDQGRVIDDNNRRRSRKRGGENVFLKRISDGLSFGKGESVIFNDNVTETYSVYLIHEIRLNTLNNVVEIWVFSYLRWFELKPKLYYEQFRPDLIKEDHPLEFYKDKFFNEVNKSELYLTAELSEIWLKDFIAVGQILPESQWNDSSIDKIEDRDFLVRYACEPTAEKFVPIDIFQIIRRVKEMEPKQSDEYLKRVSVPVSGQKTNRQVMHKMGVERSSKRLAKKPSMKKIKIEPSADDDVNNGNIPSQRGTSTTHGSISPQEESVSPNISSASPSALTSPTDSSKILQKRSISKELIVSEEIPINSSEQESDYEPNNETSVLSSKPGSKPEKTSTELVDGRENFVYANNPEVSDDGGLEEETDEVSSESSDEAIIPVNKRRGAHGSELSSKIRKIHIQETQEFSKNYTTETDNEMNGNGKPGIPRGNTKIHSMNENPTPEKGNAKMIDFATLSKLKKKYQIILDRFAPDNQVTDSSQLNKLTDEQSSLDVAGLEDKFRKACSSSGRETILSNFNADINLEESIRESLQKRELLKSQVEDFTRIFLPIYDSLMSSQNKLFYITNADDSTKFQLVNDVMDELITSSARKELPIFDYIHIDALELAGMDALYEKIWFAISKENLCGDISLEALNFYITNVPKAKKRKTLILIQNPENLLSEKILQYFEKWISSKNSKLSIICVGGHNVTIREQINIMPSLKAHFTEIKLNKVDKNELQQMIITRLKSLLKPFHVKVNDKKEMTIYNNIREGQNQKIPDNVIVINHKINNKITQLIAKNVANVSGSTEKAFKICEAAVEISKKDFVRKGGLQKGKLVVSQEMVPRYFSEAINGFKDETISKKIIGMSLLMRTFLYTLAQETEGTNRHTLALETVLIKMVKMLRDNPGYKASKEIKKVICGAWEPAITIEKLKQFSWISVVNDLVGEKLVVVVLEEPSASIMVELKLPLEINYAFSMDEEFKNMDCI
T1 sequence (P11978 whole entry, chain 3 of 3, further chain): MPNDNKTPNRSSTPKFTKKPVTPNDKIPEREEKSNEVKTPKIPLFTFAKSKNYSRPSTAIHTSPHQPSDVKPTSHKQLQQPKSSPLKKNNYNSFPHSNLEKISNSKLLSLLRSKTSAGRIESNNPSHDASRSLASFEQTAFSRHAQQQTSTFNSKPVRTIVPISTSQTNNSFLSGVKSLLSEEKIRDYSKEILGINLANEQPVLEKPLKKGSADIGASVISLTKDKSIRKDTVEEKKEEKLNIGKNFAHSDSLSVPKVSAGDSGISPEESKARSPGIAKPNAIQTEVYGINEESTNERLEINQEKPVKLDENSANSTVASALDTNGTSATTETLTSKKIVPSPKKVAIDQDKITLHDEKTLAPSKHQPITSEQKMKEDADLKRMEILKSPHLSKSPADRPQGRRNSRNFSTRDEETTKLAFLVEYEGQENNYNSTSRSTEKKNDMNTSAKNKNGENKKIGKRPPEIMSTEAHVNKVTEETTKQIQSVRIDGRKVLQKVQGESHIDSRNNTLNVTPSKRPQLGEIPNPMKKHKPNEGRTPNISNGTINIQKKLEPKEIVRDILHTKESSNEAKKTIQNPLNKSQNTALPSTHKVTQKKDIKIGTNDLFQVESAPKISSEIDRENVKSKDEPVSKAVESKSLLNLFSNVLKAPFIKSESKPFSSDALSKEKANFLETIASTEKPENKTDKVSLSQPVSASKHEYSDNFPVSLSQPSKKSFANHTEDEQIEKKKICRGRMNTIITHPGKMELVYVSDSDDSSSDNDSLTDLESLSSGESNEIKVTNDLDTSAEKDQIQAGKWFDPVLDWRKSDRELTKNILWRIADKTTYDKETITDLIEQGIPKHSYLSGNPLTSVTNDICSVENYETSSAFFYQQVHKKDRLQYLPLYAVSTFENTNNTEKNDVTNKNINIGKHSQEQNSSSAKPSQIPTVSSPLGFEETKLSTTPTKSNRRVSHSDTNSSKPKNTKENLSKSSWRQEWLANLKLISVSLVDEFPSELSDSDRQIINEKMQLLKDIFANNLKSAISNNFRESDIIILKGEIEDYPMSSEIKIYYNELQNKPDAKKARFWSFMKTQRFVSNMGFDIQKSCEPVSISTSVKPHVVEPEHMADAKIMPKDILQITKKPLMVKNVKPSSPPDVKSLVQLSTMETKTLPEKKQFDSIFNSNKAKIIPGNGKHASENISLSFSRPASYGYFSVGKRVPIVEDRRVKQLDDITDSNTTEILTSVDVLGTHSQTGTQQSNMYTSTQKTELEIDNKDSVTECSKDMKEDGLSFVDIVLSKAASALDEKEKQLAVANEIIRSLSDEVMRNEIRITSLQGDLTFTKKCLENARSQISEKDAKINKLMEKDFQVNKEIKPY
Assay: pull-down; 1.0 µg biotinylated histone peptide incubated with 1 µg purified SIR complex (Sir2-FLAG) in 50 mM Tris-HCl pH 7.5, 250 mM NaCl, 0.1% NP-40, overnight at 4 °C; Streptavidin beads; immunoblot
Details: both partners purified

binding result: binds
B1: H3pT11 ([…]) peptide (peptide)
peptide: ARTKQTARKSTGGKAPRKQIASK
modifications: phosphothreonine at T11; biotin (position not given)
notes: histone H3 […]; also called H3T11 phosphorylated (H3pT11) H3 ([…]) peptide; H3pT11 peptide; source: synthetic peptide (biotinylated histone peptide)
